Measurements reported in the supplement of paper PMC7826260.
The list shows a part of the results. Cleavage of a single-stranded DNA pool by Rep nickase domains was read by sequencing for 1 h at 37 °C with 3 µM enzyme; only the middle of the 90-letter strands is printed. The score is log2 (uncut reads / reads without enzyme); the lower, the more was cut; hits are not called. Shares of all reads are compared, so uncut sequences can rise above 0 when many others are cut.

Each sequence was assayed on T1, Rep nickase domain of maize striate mosaic virus (assay: uncleaved DNA left, log2 of reads against the no-enzyme library (log2 ratio); higher = less cleavage (more negative = more Rep cleavage of the k-mer); sequences stand for … in CTCGTCCG…ACCGGAGA).
T1 sequence (residues 1-117 of Rep, tag left off): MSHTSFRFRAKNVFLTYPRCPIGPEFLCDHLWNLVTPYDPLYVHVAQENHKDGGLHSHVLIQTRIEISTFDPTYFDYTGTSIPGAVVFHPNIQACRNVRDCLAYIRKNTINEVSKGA
Method: (§1)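 A pool of 90-nt single-stranded DNAs with seven random bases just before the constant AC of the nick site (name = the seven bases) was cut by 3 µM recombinant His6-SUMO-tagged Rep nickase domain (300 nM DNA, 50 mM HEPES pH 8.0, 50 mM NaCl, 1 mM MnCl2, 1 h, 37 °C, three replicates). Uncut DNA was amplified and sequenced.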

| Sequence | uncleaved DNA left (log2) |
| --- | --- |
| AGGCTAA | 0.348 |
| TCAGGAT | 1.85 |
| CAATTAA | -0.991 |
| GATGTAC | 0.84 |
| TATGCCA | -0.968 |
| CCAAACC | -0.611 |
| ACACTGC | -0.814 |
| CATCAGG | 0.00646 |
| CTCGGGT | 1.31 |
| CCTGTCA | -0.34 |
| TCATATG | -1.2 |
| TATCTCC | 1.49 |
| CAGTGAA | 0.0411 |
| AGTCCCA | 1.22 |
| CGGGCCC | 1.44 |
| AACGCCA | 0.00565 |
| CACTGAA | 0.485 |
| CTCAGCT | -0.803 |
| GCGTGCG | 0.0184 |
| CCCAAAC | -0.711 |

| Sequence | uncleaved DNA left (log2) |
| --- | --- |
| ACTTGCT | -0.463 |
| TAATTGT | -3.95 |
| CAACTGT | 0.553 |
| GCGGAAC | 1.79 |
| TATCTAT | 0.206 |
| CCACGAG | -0.843 |
| TTCTCTT | -0.282 |
| CTCCTTA | -0.535 |
| CAAACTG | 0.961 |
| TTCATCG | -1.07 |
| AGTATAA | -0.211 |
| GTCTTGC | 0.686 |
| AGTAATT | 0.131 |
| ATAGCCG | -0.871 |
| GACACTC | 0.722 |
| GGAAACT | 1.96 |
| GCCCAAT | 0.392 |
| CCCCTGG | -0.302 |
| GTAATTG | -0.472 |
| TCACGTG | -0.992 |

What follows are sequences tested on T2, Rep nickase domain of porcine circovirus 2 in the same assay as above.
T2 sequence (residues 2-116 of Rep, tag left off): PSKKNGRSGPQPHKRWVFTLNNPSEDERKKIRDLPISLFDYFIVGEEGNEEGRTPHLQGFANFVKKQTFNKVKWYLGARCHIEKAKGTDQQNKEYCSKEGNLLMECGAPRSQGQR
Method: as §1

| Sequence | uncleaved DNA left (log2) |
| --- | --- |
| AGGCTAA | -0.174 |
| TCAGGAT | 0.111 |
| CAATTAA | -0.303 |
| GATGTAC | 0.0315 |
| TATGCCA | -0.232 |
| CCAAACC | -0.127 |
| ACACTGC | 0.183 |
| CATCAGG | 0.242 |
| CTCGGGT | 0.172 |
| CCTGTCA | 0.0167 |
| TCATATG | 0.133 |
| TATCTCC | 0.0587 |
| CAGTGAA | -2.68 |
| AGTCCCA | -0.484 |
| CGGGCCC | -0.00519 |
| AACGCCA | -0.0215 |
| CACTGAA | -1.57 |
| CTCAGCT | 0.0345 |
| GCGTGCG | 0.145 |
| CCCAAAC | 0.108 |

| Sequence | uncleaved DNA left (log2) |
| --- | --- |
| ACTTGCT | -0.276 |
| TAATTGT | -3.98 |
| CAACTGT | 0.0348 |
| GCGGAAC | -0.0219 |
| TATCTAT | -0.564 |
| CCACGAG | 0.125 |
| TTCTCTT | -3.02 |
| CTCCTTA | -0.193 |
| CAAACTG | 0.013 |
| TTCATCG | 0.198 |
| AGTATAA | -0.861 |
| GTCTTGC | 0.0598 |
| AGTAATT | -3.59 |
| ATAGCCG | 0.128 |
| GACACTC | -0.0309 |
| GGAAACT | 0.111 |
| GCCCAAT | 0.0056 |
| CCCCTGG | -0.111 |
| GTAATTG | 0.0631 |
| TCACGTG | 0.21 |

The sequences below were run on T3, Rep nickase domain of tomato golden mosaic virus in the same assay as above.
T3 sequence (residues 1-124 of Rep, tag left off): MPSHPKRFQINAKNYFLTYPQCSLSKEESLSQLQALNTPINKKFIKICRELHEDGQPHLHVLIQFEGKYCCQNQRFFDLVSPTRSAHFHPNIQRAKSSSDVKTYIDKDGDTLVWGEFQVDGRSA
Method: as §1

| Sequence | uncleaved DNA left (log2) |
| --- | --- |
| AGGCTAA | -0.0185 |
| TCAGGAT | 0.126 |
| CAATTAA | -0.0856 |
| GATGTAC | -0.047 |
| TATGCCA | -0.0996 |
| CCAAACC | -0.0976 |
| ACACTGC | 0.144 |
| CATCAGG | 0.271 |
| CTCGGGT | 0.0732 |
| CCTGTCA | 0.0901 |
| TCATATG | -0.0604 |
| TATCTCC | -0.0404 |
| CAGTGAA | 0.0184 |
| AGTCCCA | -0.104 |
| CGGGCCC | -0.0861 |
| AACGCCA | 0.0777 |
| CACTGAA | -0.125 |
| CTCAGCT | -0.0943 |
| GCGTGCG | -0.203 |
| CCCAAAC | -0.115 |

| Sequence | uncleaved DNA left (log2) |
| --- | --- |
| ACTTGCT | 0.0406 |
| TAATTGT | -4.17 |
| CAACTGT | -0.0839 |
| GCGGAAC | -0.0778 |
| TATCTAT | 0.0341 |
| CCACGAG | 0.036 |
| TTCTCTT | 0.00959 |
| CTCCTTA | -0.208 |
| CAAACTG | 0.0734 |
| TTCATCG | 0.0132 |
| AGTATAA | 0.0196 |
| GTCTTGC | 0.104 |
| AGTAATT | -0.0193 |
| ATAGCCG | -0.107 |
| GACACTC | -0.0875 |
| GGAAACT | -0.0616 |
| GCCCAAT | 0.0143 |
| CCCCTGG | -0.0612 |
| GTAATTG | 0.0604 |
| TCACGTG | -0.0392 |

What follows are sequences tested on T4, Rep nickase domain of tomato yellow leaf curl virus in the same assay as above.
T4 sequence (residues 1-136 of Rep, tag left off): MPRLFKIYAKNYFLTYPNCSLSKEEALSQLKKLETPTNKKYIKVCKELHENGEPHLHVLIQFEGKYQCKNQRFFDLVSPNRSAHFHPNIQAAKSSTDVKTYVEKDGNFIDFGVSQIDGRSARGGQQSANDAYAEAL
Method: as §1

| Sequence | uncleaved DNA left (log2) |
| --- | --- |
| AGGCTAA | -0.171 |
| TCAGGAT | -0.174 |
| CAATTAA | -0.115 |
| GATGTAC | -0.00545 |
| TATGCCA | -0.00923 |
| CCAAACC | 0.0177 |
| ACACTGC | 0.0128 |
| CATCAGG | -0.00186 |
| CTCGGGT | 0.149 |
| CCTGTCA | 0.105 |
| TCATATG | -0.132 |
| TATCTCC | 0.00803 |
| CAGTGAA | 0.00201 |
| AGTCCCA | 0.0807 |
| CGGGCCC | -0.0645 |
| AACGCCA | -0.0488 |
| CACTGAA | 0.00116 |
| CTCAGCT | -0.071 |
| GCGTGCG | -0.24 |
| CCCAAAC | -0.0165 |

| Sequence | uncleaved DNA left (log2) |
| --- | --- |
| ACTTGCT | 0.194 |
| TAATTGT | -0.938 |
| CAACTGT | -0.118 |
| GCGGAAC | -0.135 |
| TATCTAT | -0.0823 |
| CCACGAG | 0.0423 |
| TTCTCTT | -0.0418 |
| CTCCTTA | -0.0294 |
| CAAACTG | -0.0197 |
| TTCATCG | 0.0448 |
| AGTATAA | 0.0318 |
| GTCTTGC | 0.0133 |
| AGTAATT | 0.222 |
| ATAGCCG | -0.031 |
| GACACTC | -0.0261 |
| GGAAACT | 0.00406 |
| GCCCAAT | -0.0623 |
| CCCCTGG | -0.168 |
| GTAATTG | 0.0491 |
| TCACGTG | -0.0765 |

Each sequence was assayed on T5, Rep nickase domain of wheat dwarf virus in the same assay as above.
T5 sequence (residues 1-137 of Rep, tag left off): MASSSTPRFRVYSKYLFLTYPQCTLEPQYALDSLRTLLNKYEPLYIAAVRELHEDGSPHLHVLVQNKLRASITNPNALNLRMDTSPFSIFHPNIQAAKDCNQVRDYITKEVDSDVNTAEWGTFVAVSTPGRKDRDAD
Method: as §1

| Sequence | uncleaved DNA left (log2) |
| --- | --- |
| AGGCTAA | -0.0277 |
| TCAGGAT | 0.0137 |
| CAATTAA | -0.0632 |
| GATGTAC | -0.00707 |
| TATGCCA | -0.0769 |
| CCAAACC | -0.000744 |
| ACACTGC | -0.0412 |
| CATCAGG | 0.108 |
| CTCGGGT | 0.0588 |
| CCTGTCA | 0.0387 |
| TCATATG | -0.0486 |
| TATCTCC | -0.014 |
| CAGTGAA | -0.0967 |
| AGTCCCA | -0.215 |
| CGGGCCC | 0.116 |
| AACGCCA | -0.0918 |
| CACTGAA | 0.0872 |
| CTCAGCT | -0.162 |
| GCGTGCG | -0.287 |
| CCCAAAC | -0.012 |

| Sequence | uncleaved DNA left (log2) |
| --- | --- |
| ACTTGCT | 0.0418 |
| TAATTGT | -3.96 |
| CAACTGT | 0.0119 |
| GCGGAAC | 0.0166 |
| TATCTAT | -0.0204 |
| CCACGAG | 0.145 |
| TTCTCTT | -0.0754 |
| CTCCTTA | 0.0399 |
| CAAACTG | 0.01 |
| TTCATCG | 0.00711 |
| AGTATAA | 0.0393 |
| GTCTTGC | -0.00739 |
| AGTAATT | 0.101 |
| ATAGCCG | -0.161 |
| GACACTC | 0.0634 |
| GGAAACT | 0.0993 |
| GCCCAAT | 0.0635 |
| CCCCTGG | -0.181 |
| GTAATTG | -0.00623 |
| TCACGTG | -0.0638 |
